In PubChem BioAssay AID1159614 (National Center for Advancing Translational Sciences (NCATS), 2016):
Among all 45,000 compounds or so, about 65 (0.1%) were called active. The call rests on the fitted dose curve; in most records, active means well fitted activation curve with a large enough effect; inconclusive means small, poorly fitted or top-dose-only effect; inactive means no such curve, though single readings can be large or run the other way. Some of the results follow.

biological target: Galactocerebrosidase (Homo sapiens) (UniProt P54803); assay: A Novel Cell-Based Assay to Identify Small Molecules for B -Galactocerebrosidase; settings: 145M-Twi-hGALC-G270D cells (Twitcher mouse brain line with human GALC G270D), HMU-beta-Gal fluorescence, 48 h; series mostly up to 57.5 µM; activation: at the top concentration; further: 0% is about no effect; nearly all actives have a fitted effect of over 65% in size
UniProt P54803, sequence (P54803 whole entry, looked up): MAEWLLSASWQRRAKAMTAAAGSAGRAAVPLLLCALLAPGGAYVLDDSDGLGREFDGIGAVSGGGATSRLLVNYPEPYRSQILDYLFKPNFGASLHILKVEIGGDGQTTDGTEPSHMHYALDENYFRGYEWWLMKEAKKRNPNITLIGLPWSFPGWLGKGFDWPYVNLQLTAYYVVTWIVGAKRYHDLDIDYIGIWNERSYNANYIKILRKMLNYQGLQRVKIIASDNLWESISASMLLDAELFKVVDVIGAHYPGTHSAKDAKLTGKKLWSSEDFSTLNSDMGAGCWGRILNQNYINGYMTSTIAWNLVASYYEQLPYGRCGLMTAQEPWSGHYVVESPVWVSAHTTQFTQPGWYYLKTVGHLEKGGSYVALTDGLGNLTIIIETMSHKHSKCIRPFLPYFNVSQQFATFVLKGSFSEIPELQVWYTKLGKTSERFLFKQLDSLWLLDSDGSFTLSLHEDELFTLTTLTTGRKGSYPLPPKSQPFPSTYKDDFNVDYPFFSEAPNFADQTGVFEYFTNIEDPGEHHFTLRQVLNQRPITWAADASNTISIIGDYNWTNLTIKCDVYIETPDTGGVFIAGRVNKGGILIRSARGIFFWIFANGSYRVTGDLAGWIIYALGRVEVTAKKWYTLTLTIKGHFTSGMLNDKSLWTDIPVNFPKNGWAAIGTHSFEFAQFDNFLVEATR
How it was run: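 Brain-derived Twitcher mouse 145M-Twi cells stably expressing human GALC-G270D or wild-type GALC, treated live, then residual GALC activity read by fluorescence of HMU-b-Gal substrate (0.1 mM final) in citrate-phosphate buffer pH 5.2 with sodium taurocholate. Signal increase indicates enhancement.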

activation, inactive:
O=C(Nc1ccc(F)cc1Cl)C1Cc2ccccc2N1C(=O)c1ccccc1 (stereo unspecified) -5.62%
Cc1ccc(Cl)cc1N1CCN(C(=O)C2CCN(S(=O)(=O)c3ccc4c(c3)oc(=O)n4C)CC2)CC1 3.55%
CC(=O)c1cccc(NC(=O)c2nc3ccccc3nc2N2CCCCC2)c1 -19.5%
CCOc1ccc(-c2cn3c(n2)sc2cc(C(=O)NCCc4ccc(OC)c(OC)c4)ccc23)cc1 -2.43%
CCC(=O)N1CCc2cc(S(=O)(=O)CCC(=O)N3CCN(c4ccc(C(C)=O)cc4)CC3)ccc21 -11.7%
Cc1ccc(C2=NN(CC(=O)NCCc3ccc(Cl)cc3)C(=O)CC2)cc1 -7.59%
COC(=O)c1cc(S(=O)(=O)NCC2CCN(Cc3ccccc3F)CC2)c[nH]1 -0.958%
Cc1cc(C)c2c(n1)nn1c(C)c(CCC(=O)NCc3ccc(Cl)cc3)c(C)nc21 1.77%
CN1C(=O)C2(c3ccccc31)N(c1ccc(F)c(Cl)c1)C(=O)CS2(=O)=O (stereo unspecified) -30.9%
O=C(Nc1cc(F)ccc1F)c1cc2nc(-c3ccco3)cc(C(F)(F)Cl)n2n1 -28.1%
O=C(CSc1nccn1Cc1ccccc1)Nc1ccc2c(c1)OCO2 -8.29%
CCC(C)(C)NC(=O)Cn1c(=O)ccc2cc(S(=O)(=O)N3CCC(C)CC3)ccc21 -3%
CCOC(=O)N1CCC(NC(=O)c2ccc3c(c2)N(Cc2cc(C)ccc2C)C(=O)c2ccccc2S3=O)CC1 (stereo unspecified) -13.9%
COc1ccc(CCNC(=O)CCn2c(=O)c3cccn3c3cccnc32)c(OC)c1OC 8.32%
Cc1cccc(NC(=O)N2CCC(n3c(C)nc4cccnc43)CC2)c1 -17.6%
CN(C(=O)c1cc2c(=O)n3ccccc3nc2n1C)c1ccccc1 -9.13%
CCOc1cc(C(=O)NCCc2csc(-c3ccc(C)cc3)n2)cc(OCC)c1OCC -1.49%
CC(=O)Nc1nnc(SCc2cc(=O)c3cccc(Cl)c3[nH]2)s1 -11.1%
CCOc1ccc(CCNC(=O)Cn2nnc(-c3ccc(C(F)(F)F)cc3)n2)cc1OCC -15%
CCOC(=O)c1c(NC(=O)CSc2nc(-c3ccccc3)cc(C(F)(F)F)n2)sc(C)c1C -14.1%
Cn1cc(CCCC(=O)NCc2ccccc2Cl)c2ccccc21 -3.23%
Cc1ccc(CNc2ccc(-c3nc(-c4ccccn4)no3)cc2[N+](=O)[O-])cc1 -3.05%
O=C(c1ccc([N+](=O)[O-])cc1)N1CCN(c2ccc(Nc3ccccc3)nn2)CC1 -7.35%
CCOc1ccc(CCNC(=O)CN2C(=O)c3cccnc3Oc3ccc(Cl)cc32)cc1 -9.36%
CCOc1ccc(OCC)c(Nc2cc(C)nc3nc(-c4ccco4)nn23)c1 -5.31%
CC(=O)N1c2ccc(S(=O)(=O)N3CCCCCC3)cc2CC1C(=O)NCc1ccccc1F (stereo unspecified) -10.8%
CCCCN(CCCC)CCNC(=O)c1cn(C)c2ccc(S(=O)(=O)N3CCCC3)cc2c1=O -0.234%
CCOC(=O)c1c(S(=O)(=O)N2CCC(C(=O)Nc3ccc(OCC)cc3)CC2)c(C)n(C)c1C -13.3%
Cc1c(NC(=O)Nc2ccc(F)c(Cl)c2)c(=O)n(-c2ccccc2)n1C -5.33%
CCc1cnc2c(c1SCC(=O)N1CCC(C)CC1)c(=O)n(C)c(=O)n2C -5.39%
Cc1nn(CCC(=O)N2CCN(c3ccccc3)CC2)c(C)c1S(=O)(=O)N1CCCC1 -11%
COc1ccc(OC)c(NC(=O)N2c3ccccc3Sc3ccccc32)c1 -1.88%
Cc1ccc(OCc2nc(-c3ccc(C(=O)N4CCN(c5ccccc5)CC4)cc3)oc2C)cc1 -19.7%
O=C(NCc1ccccc1Cl)c1ccc(Nc2nc3ccccc3n3nnnc23)cc1 -20.2%
CCc1ccc(C2c3c(-c4cc(C)ccc4O)n[nH]c3C(=O)N2Cc2cccnc2)cc1 (stereo unspecified) -12.4%
CSc1ccc(CNC(=O)c2cc3cc(S(=O)(=O)N4CCCCC4)ccc3n2C)cc1 -5.48%
CCCCC(=O)OC1=C(C(=O)c2ccccc2)N(CC)S(=O)(=O)c2ccccc21 1.92%
O=C(Nc1cccc(-c2nc3ccccc3o2)c1)c1cccc(Br)c1 -10.7%
CCOC(=O)c1c(Nc2cc(C)cc(C)c2)nnc(-c2ccccc2)c1-c1ccccc1 7.9%
C[C@H](N)C(=O)N[C@@H](C)C(=O)NC1[C@H]2CN(c3nc4c(cc3F)c(=O)c(C(=O)O)cn4-c3ccc(F)cc3F)C[C@@H]12 (stereo partly specified) -11.8%
COc1ccc(Cn2ccc3nc(C)c(C(=O)Nc4ccc(OC(F)(F)F)cc4)cc3c2=O)cc1 -15.2%
O=C(NCC(c1cccnc1)N1CCc2ccccc2C1)C(=O)Nc1ccccc1 (stereo unspecified) -21%
COc1ccccc1CNS(=O)(=O)c1ccc(F)c(C(=O)Nc2cc(Cl)ccc2OC)c1 -14.8%
COc1ccccc1N1CCN(S(=O)(=O)c2c(C)nc3sc(C)c(C)n3c2=O)CC1 -11.3%
CC1CCN(S(=O)(=O)c2ccc3nc(Nc4ccc(C#N)cc4)ccc3c2)CC1 -8.02%
COc1cccc(CNC(=O)C2CCN(S(=O)(=O)N3CCC(C)CC3)CC2)c1 -15.1%
COc1cccc2c1Oc1ncccc1N(C(=O)Nc1cccc(Cl)c1)C2 -10.4%
CCOc1ccccc1NC(=O)CN1c2ccccc2S(=O)(=O)c2ccccc21 -14.4%
Cc1ccc(CNC(=O)c2cc(S(=O)(=O)N3CCCCCC3)cn2C)cc1 -11.3%
CCOc1ccc(NS(=O)(=O)c2ccc3[nH]cc(C(=O)NCc4ccccc4)c(=O)c3c2)cc1 -14.4%
Cc1cccc(CNC(=O)c2ccc3c(c2)N(C)C(=O)C2CCCCN32)c1 (stereo unspecified) -0.99%
COc1ccc(CNS(=O)(=O)c2cnc(N)nc2)cc1 -10.8%
CCCCC(=O)OC1=C(C(=O)c2ccccc2)N(C)S(=O)(=O)c2ccccc21 -12.5%
Cn1nc(-c2ccc(C(=O)Nc3cccc(C(F)(F)F)c3)cc2)c2ccccc2c1=O -7.38%
CCCCCCCCNC(C)C(O)c1ccc(SC(C)C)cc1 (stereo unspecified) -18.3%
CCOc1ccccc1NC(=O)C1CCN(S(=O)(=O)c2ccc3[nH]c4c(c3c2)CCCCC4)CC1 -10.6%
Cc1nn(C)c(C)c1S(=O)(=O)N(CC(=O)N1CCN(c2ccccc2)CC1)c1ccc(C(C)C)cc1 -12.8%
Cc1nc(-c2ccc(C)c(S(=O)(=O)N3CCC(C(=O)Nc4ccc(Cl)cc4)CC3)c2)no1 -33.9%
COc1ccc(NC(=O)c2sc3nc4c(cc3c2N)CCCCCC4)cc1OC -10.3%
Cc1ccccc1NC(=O)c1ccc(F)c(S(=O)(=O)N(C)C2CCCCC2)c1 0.182%
CCCCCNC(=O)c1ccc2c(c1)nc(C)n2-c1cccc(C)c1 -17.2%
O=C(CCn1c(=O)c2cccn2c2ccccc21)Nc1ccc(F)cc1 -7.98%
COc1ccccc1NC(=O)c1cc2c([nH]c1=O)CC(C)(C)CC2=O -9.44%
Cc1cc(C)n(-c2nnc(Nc3cc(Cl)ccc3C)c3ccccc23)n1 -9.23%
O=C(NCc1cccs1)c1ccc(CSc2nc3cccnc3n2Cc2ccccc2)cc1 -1.87%
O=C1C2=C(Nc3ccccc3SC2c2ccccc2C(F)(F)F)c2ccccc21 (stereo unspecified) -17%
Cc1ccc(C)c(NC(=O)Cn2c(=O)ccc3cc(S(=O)(=O)N4CCCC4)ccc32)c1 -18.6%
COc1ccc(CNC(=O)C2CCN(S(=O)(=O)c3ccc(C)cc3)CC2)cc1 17.4%
CCN1CCN(C(c2ccccc2)c2c(O)cc(C)n(Cc3ccco3)c2=O)CC1 (stereo unspecified) -16.3%
N#C/C(=C/c1ccc(Cl)cc1Cl)c1nc2ccccc2c(=O)[nH]1 -11.6%
CC1Cc2cc(S(=O)(=O)N(C)c3ccc(Br)cc3)ccc2N1C(=O)C1CC1 (stereo unspecified) -13.5%
Fc1ccc(Cc2cn3cc(-c4ccc(Cl)cc4)nc3s2)cc1 -8.01%
COc1ccc(NC(=O)C2CCCN(S(=O)(=O)c3cccs3)C2)cc1 (stereo unspecified) -27.5%
CCC1CCCCN1CCCNC(=O)c1cc2c(=O)n(CC)c3ccccc3c2s1 (stereo unspecified) -14.6%
CCOC(=O)c1nnn(CC(=O)NC(=O)Nc2cccc(CC)c2)c1C(=O)OCC -15.2%
CCN(CC)C(=O)c1sc2c(c1C)c(=O)n(-c1ccc(Cl)c(Cl)c1)c(=O)n2CC(=O)Nc1cccc(OC)c1 -1.92%
O=C(COc1ccc(Cl)cc1)NCCc1csc(-c2ccc(F)cc2)n1 -4.19%
COc1ccc(-c2nnc3c4ccccc4c(-c4ccccc4)nn23)cc1 4.2%
CCOc1ccc(CCNC(=O)c2cccc(-n3c(C)nc4cccnc43)c2)cc1 1.47%
COC(=O)c1c(N)n(-c2ccc(OC)c(Cl)c2)c2nc3ccccc3nc12 0.895%
O=C(Nc1ccccc1F)c1ccc(-c2ccccc2)s1 5.97%
COc1ccc(Nc2ncc3c(n2)CCN(C(=O)OC(C)(C)C)C3)cc1 -8.04%
COc1ccccc1CN1CCN(C2CCN(C(=O)NC(C)C)CC2)C(=O)C1=O -14%
CN(Cc1ccc(C(C)(C)C)cc1)Cc1cccc2ccccc12 -7.71%
Cc1ccc(CCNC(=O)c2cc(-c3ccc(Cl)cc3)n[nH]2)cc1 -19.2%
Cc1ccc(Nc2cc(C(=O)NCc3cccs3)c3ccccc3n2)c(C)c1 -11.9%
Cc1ccc(NC(=O)Cc2coc3c(C)c(C)ccc23)cc1Cl -17.8%
Cc1ccc(NC(=O)c2ccc3[nH]c(C)cc(=O)c3c2)c(C)c1 -15.6%
COc1cc2ccccc2cc1C(=O)Nc1ccc2oc(-c3ccccc3)nc2c1 -14.9%
CCOc1ccccc1C(=O)N(Cc1cccs1)c1ccc(Cl)cc1 -6.7%
Cc1ccccc1CNC(=O)CCC(=O)N1CC2CCCN2c2ccccc21 (stereo unspecified) 0.741%
CCc1ccc2c(c1)-c1ccccc1S(=O)(=O)N2CC(=O)N1CCC(C)CC1 -9.86%
COc1cccc(Cn2c(CNS(=O)(=O)c3ccc4c(c3)CCCC4)nc3cccnc32)c1 -3.26%
CC1CCN(S(=O)(=O)c2ccc3c(c2)N(CC(=O)N2CCN(c4ccccc4)CC2)C(=O)CO3)CC1 2.4%
COc1ccccc1CNc1ncnc2c1c(-c1ccccc1)cn2-c1cccc(C)c1 -4.1%
COc1ccccc1C(=O)Nc1nc2nc(C)c(Cc3ccccc3)c(=O)n2[nH]1 -9.78%
